# Experimental data: the supplement of paper PMC12217912
# Some of the results follow. The full chains were built here from the parent and the listed change. Inactive controls read about 0.05.
# B1: TEV protease; numbered along this chain (parent)
# chain: MGESLFKGPRDYNPISSSICHLTNESDGHTTSLYGIGFGPFIITNKHLFRRNNGTLVVQSLHGVFKVKDTTTLQQHLVDGRDMIIIRMPKDFPPFPQKLKFREPQREERICLVTTNFQTKSMSSMVSDTSCTFPSGDGIFWKHWIQTKDGQCGSPLVSTRDGFIVGIHSASNFTNTNNYFTSVPKNFMELLTNQEAQQWVSGWRLNADSVLWGGHKVFMVKPEEPFQPVKEATQL
# Variants of: B1
# Experiment: raw area under fraction-flipped curve 0-4 h after induction (AUC4h, not background-subtracted), DNA-recorder readout of cleavage of the substrate (dimensionless); higher = more cleavage of the substrate by the protease variant
# Conditions: temperature: 34 °C; time window: 0-4 h after rhamnose induction
# Procedure: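 In vivo DNA recorder in E. coli TOP10(DE3) ΔrhaA at 34 °C. Each TEVp single-site mutant (parent TEVp 0) is paired with a single-site variant of the 7-mer TEVs (canonical ENLYFQ|S). The substrate sits between flexible linkers in a Bxb1-sfGFP-TEVs-SsrA fusion, so cleavage stabilises Bxb1 and speeds flipping of a recombination array, read by NGS. The value is the raw area under the fraction-flipped curve over 0-4 h after rhamnose induction (AUC4h), with ≥20 reads per time point. It is not background-subtracted; inactive controls average about 0.047.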
# 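Note: Bxb1 expression induced with 0.2% (w/v) L-rhamnose at OD600 near 0.5, cultures sampled hourly, flipped fraction per protease–substrate barcode pair counted by paired-end Illumina sequencing.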
Variant,area with substrate ENAYFQS,area with substrate ENCYFQS,area with substrate ENDYFQS,area with substrate ENFYFQS,area with substrate ENGYFQS,area with substrate ENHYFQS,area with substrate ENPYFQS,area with substrate ENQYFQS,area with substrate ENSYFQS,area with substrate ENTYFQS,area with substrate ENVYFQS,area with substrate ENEYFQS,area with substrate ENIYFQS,area with substrate ENKYFQS,area with substrate ENNYFQS,area with substrate ENWYFQS,area with substrate ENMYFQS,area with substrate ENRYFQS,area with substrate ENYYFQS
MGESLFKGPRDYNPISSSICHLTNESDGHTTSLYGIGFGPFIITNKHLFRRNNGTLVVQSLHGVFKVKDTTTLQQHLVDGRDMIIIRMPKDFPPFPQKLKFREPQREERICLVTTNFQTKSMSSMVSDTSCTFPSGDGIFWKHSIQTKDGQCGSPLVSTRDGFIVGIHSASNFTNTNNYFTSVPKNFMELLTNQEAQQWVSGWRLNADSVLWGGHKVFMVKPEEPFQPVKEATQL [W144S],0.0593,0.0663,0.0568,0.0798,0.067,0.0713,0.0572,0.0611,0.0647,0.0667,0.0711,,,,,,,,
MGESLFKGPRDYNPISSSICHLTNESDGHTTSLYGIGFGPFIITNKHLFRRNNGTLVVQSLHGVFKVKDTTTLQQHLVDGRDMIIIRMPKDFPPFPQKLKFREPQREERICLVTTNFQTKSMSSMVSDTSCTFPSGDGIFWKHVIQTKDGQCGSPLVSTRDGFIVGIHSASNFTNTNNYFTSVPKNFMELLTNQEAQQWVSGWRLNADSVLWGGHKVFMVKPEEPFQPVKEATQL [W144V],0.0604,0.0676,0.0606,0.0692,0.0642,0.0667,,0.0633,0.0639,0.0765,0.0665,0.0686,0.0852,0.0588,0.056,0.0634,,,
MGESLFKGPRDYNPISSSICHLTNESDGHTTSLYGIGFGPFIITNKHLFRRNNGTLVVQSLHGVFKVKDTTTLQQHLVDGRDMIIIRMPKDFPPFPQKLKFREPQREERICLVTTNFQTKSMSSMVSDTSCTFPSGDGIFWKHYIQTKDGQCGSPLVSTRDGFIVGIHSASNFTNTNNYFTSVPKNFMELLTNQEAQQWVSGWRLNADSVLWGGHKVFMVKPEEPFQPVKEATQL [W144Y],0.0604,0.0651,0.0684,0.0503,0.0606,0.0719,0.0732,0.0594,0.08,0.0753,0.0773,0.0564,0.118,,0.053,,0.0711,0.0541,0.0855
MGESLFKGPRDYNPISSSICHLTNESDGHTTSLYGIGFGPFIITNKHLFRRNNGTLVVQSLHGVFKVKDTTTLQQHLVDGRDMIIIRMPKDFPPFPQKLKFREPQREERICLVTTNFQTKSMSSMVSDTSCTFPSGDGIFWKHWIQTKDGQAGSPLVSTRDGFIVGIHSASNFTNTNNYFTSVPKNFMELLTNQEAQQWVSGWRLNADSVLWGGHKVFMVKPEEPFQPVKEATQL [C152A],0.0504,0.0633,0.066,,0.0462,,0.0619,0.0617,0.0739,0.059,0.0539,0.0558,,,,,0.0817,0.0724,0.0613
MGESLFKGPRDYNPISSSICHLTNESDGHTTSLYGIGFGPFIITNKHLFRRNNGTLVVQSLHGVFKVKDTTTLQQHLVDGRDMIIIRMPKDFPPFPQKLKFREPQREERICLVTTNFQTKSMSSMVSDTSCTFPSGDGIFWKHWIQTKDGQDGSPLVSTRDGFIVGIHSASNFTNTNNYFTSVPKNFMELLTNQEAQQWVSGWRLNADSVLWGGHKVFMVKPEEPFQPVKEATQL [C152D],0.0461,0.0554,0.0715,0.064,0.0735,,0.0757,0.0701,0.0599,,,0.0879,,0.058,,0.018,0.0605,0.0545,
MGESLFKGPRDYNPISSSICHLTNESDGHTTSLYGIGFGPFIITNKHLFRRNNGTLVVQSLHGVFKVKDTTTLQQHLVDGRDMIIIRMPKDFPPFPQKLKFREPQREERICLVTTNFQTKSMSSMVSDTSCTFPSGDGIFWKHWIQTKDGQMGSPLVSTRDGFIVGIHSASNFTNTNNYFTSVPKNFMELLTNQEAQQWVSGWRLNADSVLWGGHKVFMVKPEEPFQPVKEATQL [C152M],0.061,0.0513,,0.0492,0.0575,0.0518,0.0517,,0.0543,0.0563,0.057,0.0401,,0.0592,0.0622,,0.0713,,
MGESLFKGPRDYNPISSSICHLTNESDGHTTSLYGIGFGPFIITNKHLFRRNNGTLVVQSLHGVFKVKDTTTLQQHLVDGRDMIIIRMPKDFPPFPQKLKFREPQREERICLVTTNFQTKSMSSMVSDTSCTFPSGDGIFWKHWIQTKDGQFGSPLVSTRDGFIVGIHSASNFTNTNNYFTSVPKNFMELLTNQEAQQWVSGWRLNADSVLWGGHKVFMVKPEEPFQPVKEATQL [C152F],0.0482,0.0597,0.0615,0.0672,0.0599,0.0593,0.0442,0.0713,0.061,0.0486,0.0651,0.0599,0.0629,0.0702,0.0575,,0.0689,0.0609,
MGESLFKGPRDYNPISSSICHLTNESDGHTTSLYGIGFGPFIITNKHLFRRNNGTLVVQSLHGVFKVKDTTTLQQHLVDGRDMIIIRMPKDFPPFPQKLKFREPQREERICLVTTNFQTKSMSSMVSDTSCTFPSGDGIFWKHWIQTKDGQGGSPLVSTRDGFIVGIHSASNFTNTNNYFTSVPKNFMELLTNQEAQQWVSGWRLNADSVLWGGHKVFMVKPEEPFQPVKEATQL [C152G],0.0594,0.0801,0.0522,0.0784,0.0512,0.0653,0.0495,0.0586,0.0632,0.0427,0.0652,0.0547,0.0689,,0.0556,0.0589,0.0573,0.052,0.06
MGESLFKGPRDYNPISSSICHLTNESDGHTTSLYGIGFGPFIITNKHLFRRNNGTLVVQSLHGVFKVKDTTTLQQHLVDGRDMIIIRMPKDFPPFPQKLKFREPQREERICLVTTNFQTKSMSSMVSDTSCTFPSGDGIFWKHWIQTKDGQEGSPLVSTRDGFIVGIHSASNFTNTNNYFTSVPKNFMELLTNQEAQQWVSGWRLNADSVLWGGHKVFMVKPEEPFQPVKEATQL [C152E],0.0521,0.0584,0.0645,,0.0701,0.0473,0.0449,0.0584,0.0641,0.0566,0.0422,0.0716,0.0596,,0.0621,,0.0638,0.0617,0.0421
